83 compounds from ChEMBL document CHEMBL4888484, “Replenishing the malaria drug discovery pipeline: Screening and hit evaluation of the MMV Hit Generation Library 1 (HGL1) against asexual blood stage Plasmodium falciparum ,using a nano luciferase reporter read-out” (2022) can be followed below.

In general, % Inhibition refers to the drop in the measured response relative to a control, in per cent.

Each structure is given as a SMILES string. Out of some 150,000 compounds screened, about 540 (0.36%) showed an effect of 50% or more. The list shows a part of the results.

This experiment concerns Plasmodium falciparum. The experiment in a line: Primary screen in NF54 nanoGlo assay, in single point, at 2uM, 72h; a lower Z score goes with more inhibition. It is filed as functional, Erythrocyte. The following applies: timepoint 72 hour.
Take `Cc1ccn(CC(=O)Nc2ccnn2C2CCCC2)c(=O)c1`: the “% Inhibition” value is given as -18% and the Z score turned out to be 1.86.
On to `CN([C@](C)(C#N)Cn1cc(Br)cn1)S(=O)(=O)c1ccc2c(c1)CCCC2`, for which the “% Inhibition” value amounted to 1% and the Z score was -0.1.
For `Cn1cnnc1[C@@H]1CCCN1C(=O)Nc1ccc(F)c(C2CC2)c1`, in that order: -10% and 1.31.
For `NC(=O)COc1ccc(S(=O)(=O)N2CCC(=C3CC3)CC2)cc1`, in that order: -13% and 1.53.
For the compound `Cc1noc2ncnc(N[C@@H](C)CN3CCN(c4ccccc4)CC3)c12`, the “% Inhibition” value is recorded as 1% and the Z score was -0.14.
With `COc1cccc(CN2CCC[C@@]3(CCN(C(=O)Cc4ccccc4)C3)C2)c1OC`, the “% Inhibition” value is given as -10% and the Z score came to 1.86.
As for `Cc1nc(C(C)NC(c2cccc(C(F)(F)F)c2)C2CC2)no1` (stereo unspecified), the “% Inhibition” value was -13% and the Z score was 1.48.
For `Cc1n[nH]c(C)c1CC(C)C(=O)N1CCN(C(C#N)C(C)C)CC1` (stereo unspecified), in that order: -9% and 0.75.
`Cc1nc2cc(NC(=O)CCc3c[nH]c4ccccc34)ccc2[nH]1`: the “% Inhibition” value is reported as 2% and the Z score is -0.31.
For `O=C(Nc1nc(-c2ccc3c(c2)OCO3)cs1)c1ccc2c(c1)OCCO2`, the “% Inhibition” value came to 3% and the Z score is -0.53.
`O=C(NCc1ccc(-c2nccs2)cc1)c1ccc2c(c1)OCO2`: the “% Inhibition” value is listed as -13% and the Z score amounted to 2.06.
For `CN1C[C@H]2CC[C@@H](C1)N(Cc1ccccc1OCCN1CCCCC1)C2`, the “% Inhibition” value is on record as -2% and the Z score was found to be 0.49.
In the case of `O=C(N[C@H]1CCCn2ncnc21)c1c(O)cc(Cl)cc1Cl`, the “% Inhibition” value was 7% and the Z score is -0.69.
Turning to `CCN1C[C@@H](CNc2ccnc3c(C)c(C)ccc23)CC1=O`, the “% Inhibition” value is reported as -11% and the Z score amounted to 1.57.
For `COc1cccc(CNC(=O)N2C[C@H]3CCC[C@@H](OC)[C@H]3C2)c1` the same measures were 3% and -0.3.
Take `COc1ccc(F)c(NC(=O)C(=O)N(C)[C@@H](C)C2(C)CC2)c1`: the “% Inhibition” value is -13% and the Z score amounted to 1.09.
For `COc1cc(C[C@@]2(CCC(=O)NCC(C)(C)N3CCOCC3)CCC(=O)N2)ccc1F` the same measures were -1% and 0.15.
Regarding `CC(C)[C@H](OC(=O)c1cnn(C(C)C)c1)c1nccn1C`, the “% Inhibition” value is given as -10% and the Z score is on record as 1.45.
For the compound `COc1cccc([C@H]2CCN(Cc3cccn3-c3cccnc3)C[C@@H]2O)c1`, the “% Inhibition” value is recorded as -5% and the Z score was found to be 0.56.
Take `c1ccc(-c2noc(-c3nccn3CCc3ccco3)n2)cc1`: the “% Inhibition” value is given as -12% and the Z score was 1.16.
Turning to `COCCOc1cc(Cn2cnc3cc(F)c(F)cc32)ccn1`, the “% Inhibition” value is given as -6% and the Z score worked out at 0.54.
On to `COCCCN(Cc1ccncc1C#N)[C@H]1CCS(=O)(=O)C1`, for which the “% Inhibition” value is recorded as -2% and the Z score is 0.22.
As for `CCc1nc(C)nc(N2CCN(C(=O)c3ccco3)CC2)c1Cc1ccc(Cl)cc1`, the “% Inhibition” value amounted to 4% and the Z score is recorded as -0.78.
Take `CN(C)C(=O)NCC(=O)N1CCC(c2ncon2)CC1`: the “% Inhibition” value was -9% and the Z score is reported as 1.13.
For the compound `CCOc1ccc2nc(NC(=O)c3coc(NC(=O)c4cc(C)on4)n3)sc2c1`, the “% Inhibition” value is recorded as -1% and the Z score is 0.17.
For the compound `O=C(c1ccc(-c2ccccc2)[nH]c1=O)N1Cc2ccccc2[C@@H](O)C1`, the “% Inhibition” value is given as -17% and the Z score was 2.
Consider `C[C@@H](Cn1cncn1)NC(=O)NC1CC(c2cccc(Cl)c2)C1` (stereo partly specified), for which the “% Inhibition” value is recorded as -8% and the Z score came to 1.42.
For `CC(=O)N1CCN(C(=O)CN(CC(F)(F)F)C2CCC2)CC1` the same measures were -3% and 0.48.
On to `Cc1nc2nnnn2c(C)c1Cc1ccc(Cl)cc1`, for which the “% Inhibition” value is listed as -6% and the Z score is on record as 0.65.
Take `CCOC(=O)N1CCN(C(=O)c2cc(-c3cccc(OC)c3)n3nc(-c4ccccc4)cc3n2)CC1`: the “% Inhibition” value is listed as 1% and the Z score is given as -0.08.
As for `CCn1ccc(C(=O)NCc2cccnc2)cc1=O`, the “% Inhibition” value is 8% and the Z score was -0.81.
With `Cc1cc(N2CCC([C@H](C)N3CCN(C)CC3)CC2)n2nc(C)cc2n1`, the “% Inhibition” value was found to be 13% and the Z score is recorded as -1.69.
`O=C(CCc1ccc2c(c1)OCCO2)N1CCC(c2nc3ccccc3o2)CC1`: the “% Inhibition” value is listed as -14% and the Z score came to 2.13.
As to `Cc1ccc(CNC(=O)c2ccc(C)c(-n3nnc4cccnc43)c2)cc1`, the “% Inhibition” value is listed as -5% and the Z score amounted to 0.94.
For the compound `COc1ccc(C2N(c3ccccc3)OC3C(=O)N(c4ccccc4)C(=O)C32c2ccccc2)cc1` (stereo unspecified), the “% Inhibition” value is on record as -14% and the Z score turned out to be 1.52.
Take `Cn1c(=O)sc2cc(NC(=O)c3ccccc3Br)ccc21`: the “% Inhibition” value was -8% and the Z score is 1.53.
As to `COc1ccc(/C=C/CN2C[C@@H](C(=O)O)C[C@@H](C(=O)NC3CC3)C2)cc1`, the “% Inhibition” value is reported as -5% and the Z score is recorded as 0.95.
As for `CCN(C(=O)c1ccccc1O)[C@@H](C(=O)Nc1c(C)cccc1C)c1ccc(Cl)cc1Cl`, the “% Inhibition” value worked out at 34% and the Z score is recorded as -3.83.
For `Cc1ccsc1CN(Cc1ccccc1)C(=O)CN(CC(C)C)S(=O)(=O)c1cccc2cccnc12`, in that order: -11% and 1.2.
For `CCOCCOCC(=O)Nc1ccc(OC(F)(F)F)cc1`, in that order: -14% and 1.48.
Regarding `CN1CCN(C)[C@@H](CNCc2ccc(Oc3ccccc3)o2)C1`, the “% Inhibition” value is -5% and the Z score is reported as 0.73.
Turning to `CC(C)n1nccc1S(=O)(=O)N(C)CCN1CCCC1`, the “% Inhibition” value was 5% and the Z score is recorded as -0.65.
Take `CCCS(=O)(=O)NC(=O)CCc1ccc(Br)cc1`: the “% Inhibition” value was -8% and the Z score is reported as 0.71.
For `COc1cccc(CNC(=O)CC(C)(C)CC2=Nc3ccccc3S(=O)(=O)N2)c1` the same measures were 12% and -1.4.
`CNC(=O)NC(=O)C(C)N1CCCC1CC(O)c1ccc(F)cc1` (stereo unspecified): the “% Inhibition” value is listed as -14% and the Z score was found to be 2.65.
On to `COCC(=O)Nc1cc(C(=O)N2CCN(C(C)=O)CC2)c2c(c1)ncn2Cc1ccc(F)cc1`, for which the “% Inhibition” value is on record as 21% and the Z score is reported as -2.66.
For `N#Cc1nc(COc2cccc(Cl)c2)oc1NC[C@H]1CCCO1` the same measures were 35% and -0.86.
Consider `Cc1cccc(OCC(=O)N2CCC[C@@H]2C(=O)NCCc2csc(-c3ccccc3)n2)c1`, for which the “% Inhibition” value was found to be 0% and the Z score was determined as 0.06.
For `Cc1oc(C(C)C)cc1C(=O)[C@H](C#N)C(=O)NCc1ccccc1` the same measures were 10% and -1.61.
Turning to `O=C(O)[C@H]1CCCCN1C(=O)CCCc1c[nH]c2ccccc12`, the “% Inhibition” value is on record as -6% and the Z score was determined as 0.86.
In the case of `Cn1ncc2c(N3CCCN(C4CC4)CC3)ncnc21`, the “% Inhibition” value came to 14% and the Z score is on record as -1.78.
`CC[C@H](C)[C@H](NC(=O)c1ccc(C(F)F)cc1F)C(=O)O`: the “% Inhibition” value is reported as -13% and the Z score amounted to 1.3.
In the case of `Cc1ccc(S(=O)(=O)Nc2nc(C)c(NC(=O)Nc3ccccc3Cl)s2)cc1`, the “% Inhibition” value is listed as -10% and the Z score was 1.32.
`CCC(NC(=O)c1cccc(OC)c1)C1c2cc(OC)c(OC)cc2CCN1Cc1ccccc1` (stereo unspecified): the “% Inhibition” value came out at 2% and the Z score was -0.39.
Regarding `O=C(O)C1CCC(Cc2ccc(O)cc2)N1` (stereo unspecified), the “% Inhibition” value was -8% and the Z score stood at 1.64.
For `O=C(COc1ccc(Cl)cc1Cl)N1CC=C[C@@H]1CO` the same measures were -6% and 1.23.
For the compound `O=C(c1ccc2c(c1)OCO2)N1CCC[C@](CCc2ccccc2)(C(=O)O)C1`, the “% Inhibition” value is -4% and the Z score stood at 0.79.
`COc1cccc(NC(=O)c2c(C)sc3ncnc(N4CCCCCC4)c23)c1`: the “% Inhibition” value came to 1% and the Z score is on record as -0.1.
`CCOC(=O)c1nccn1CC(=O)Nc1c(CC)c(CC)nn1C`: the “% Inhibition” value was -7% and the Z score turned out to be 0.89.
Consider `Cc1cccc2c1N(C(=O)c1ccn3ccnc3c1)CC2`, for which the “% Inhibition” value is on record as -6% and the Z score is on record as 0.9.
In the case of `O=C(NCc1ccccc1)c1cc[n+](Cc2cccc(F)c2)cc1`, the “% Inhibition” value is -7% and the Z score came to 0.72.
For `CC(C)(C)OC(=O)N1C[C@@H]2CCCC[C@@]2(C(=O)NCCCOCC2CCOC2)C1` (stereo partly specified) the same measures were -1% and 0.15.
For the compound `CC1(C)C[C@@H]1NC(=O)c1cc(Cl)cc(F)c1N`, the “% Inhibition” value is listed as 3% and the Z score is -0.44.
In the case of `COc1cc(N(C)CC[C@H]2CCCCO2)ncn1`, the “% Inhibition” value was -4% and the Z score is 0.58.
For `COCCN(CCC(=O)NCc1ccc2c(c1)OCO2)C(=O)c1cc(-c2cc(C)ccc2C)on1` the same measures were -12% and 1.16.
For `O=C(CCN1CCO[C@H](c2ccc(Cl)cc2)C1)Nc1ccc(N2CCOCC2)cc1` the same measures were -13% and 1.75.
For `CCC(CC)Nc1ccn(CC(F)F)n1`, the “% Inhibition” value was -11% and the Z score was 2.08.
Turning to `CC(C)CCN1CC(=O)N2C(c3ccccc3)c3[nH]c4ccccc4c3C[C@H]2C1=O` (stereo partly specified), the “% Inhibition” value is -11% and the Z score stood at 1.36.
For `CC(C)[C@H](NC(=O)CC1=CCCCC1)C(=O)O` the same measures were -12% and 1.13.
For `CCn1ccnc(N2CC[C@@](O)(C(F)(F)F)C2)c1=O`, the “% Inhibition” value was -12% and the Z score stood at 1.07.
With `Cn1cccc1[C@H](CNS(=O)(=O)c1ccc(F)cc1)N1CCCCCC1`, the “% Inhibition” value is 0% and the Z score is reported as -0.07.
Turning to `Cc1cc(C)c2c(c1)N(C(=O)Cc1cnccc1C)CCO2`, the “% Inhibition” value is reported as -7% and the Z score worked out at 0.88.
For `COc1cccc(-c2nc3ccc(C(=O)N[C@@H](C)c4n[nH]c(C)n4)cc3o2)c1` the same measures were 4% and -0.7.
For the compound `CC(C)c1ncc(NC(=O)COCC2CC2)cn1`, the “% Inhibition” value turned out to be 1% and the Z score is -0.1.
For `Cn1nc(-c2ccc(F)cc2)cc1C(=O)NCCc1nc2c(c(C(F)(F)F)n1)COCC2`, the “% Inhibition” value is reported as -24% and the Z score amounted to 4.51.
Regarding `Cc1ccc(NC(=O)Cn2cnc3c(nnn3C)c2=O)cc1C`, the “% Inhibition” value is -11% and the Z score came out at 1.65.
On to `CN(Cc1ccccc1NCc1cc2n(n1)CCCC2)C(=O)c1cccs1`, for which the “% Inhibition” value was -7% and the Z score is 0.7.
With `CNC(=O)[C@H]1CCN(C(=O)c2cc(C)ccc2-n2cnnc2)C1`, the “% Inhibition” value is reported as 5% and the Z score is given as -0.9.
In the case of `CNC(=O)C[C@H](C)N(C)Cc1ccc(C(=O)Nc2cnn(C)n2)cc1`, the “% Inhibition” value was -10% and the Z score is reported as 1.84.
As to `CC(C)Cc1nc(C(=O)NC2(c3ncon3)CCOCC2)cs1`, the “% Inhibition” value is listed as -1% and the Z score was 0.08.
Consider `O=C(c1cncc(Br)c1)N1CC[C@H](Oc2cnsn2)C1`, for which the “% Inhibition” value is -12% and the Z score is 2.26.
Take `C[C@H]1CN(C(=O)C2(C#N)CCCCC2)CC(C)(C)O1`: the “% Inhibition” value is given as -15% and the Z score is recorded as 1.57.
For `c1ccc2c(c1)CCN(C1CCN(c3ccc4ccccc4n3)CC1)C2` the same measures were -2% and 0.42.
